Measured values published in publication PMC10512297, “The Penicillium chrysogenum tom1 Gene a Major Target of Transcription Factor MAT1-1-1 Encodes a Nuclear Protein Involved in Sporulation”.
No constants are given. Whether binding was seen depends on the method and setting. Some entries that bind do so weakly or less than the wild type. Each block holds one binder with its values, some of them ahead of it.

How the values were obtained:
Assay in all cases: two-hybrid; Gal4 AD fusions (pGADT7, prey, PJ69-4a) mated with Gal4 BD fusions (pGBKT7, bait, PJ69-4α); growth on SD-Leu-Trp-His-Ade and blue colour on X-α-Gal
[1] = target: T1, N-terminus of MAT1-1-1 (1-118 aa; MAT1-Nt) (Penicillium chrysogenum) (UniProt B1GVB9)
T1 sequence: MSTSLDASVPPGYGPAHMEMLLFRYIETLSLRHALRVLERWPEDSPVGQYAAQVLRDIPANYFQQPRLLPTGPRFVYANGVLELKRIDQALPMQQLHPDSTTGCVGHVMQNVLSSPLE

[2] = target: T2, N-terminus of MAT1-2-1 (1-131 aa; MAT2-Nt) (Penicillium chrysogenum) (UniProt B1GVC0)
T2 sequence: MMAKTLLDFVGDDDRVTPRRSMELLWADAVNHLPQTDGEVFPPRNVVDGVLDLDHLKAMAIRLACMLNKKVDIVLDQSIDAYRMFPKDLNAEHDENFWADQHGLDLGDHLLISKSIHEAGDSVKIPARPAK

[3] = target: T3, fragment spanning N-terminus and DNA-binding domain of MAT1-1-1 (1-220 aa; MAT1-NtBD) (Penicillium chrysogenum) (UniProt B1GVB9)
T3 sequence: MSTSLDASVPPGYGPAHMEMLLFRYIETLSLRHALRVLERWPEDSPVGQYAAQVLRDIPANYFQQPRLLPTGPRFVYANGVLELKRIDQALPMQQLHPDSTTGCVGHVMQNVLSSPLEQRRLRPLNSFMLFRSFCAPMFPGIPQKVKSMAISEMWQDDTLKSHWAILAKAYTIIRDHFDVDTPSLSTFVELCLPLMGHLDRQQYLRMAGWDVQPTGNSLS

B2: full-length MAT1-2-1 (1-303 aa; MAT2) (protein, UniProt B1GVC0 1-303)
chain: MMAKTLLDFVGDDDRVTPRRSMELLWADAVNHLPQTDGEVFPPRNVVDGVLDLDHLKAMAIRLACMLNKKVDIVLDQSIDAYRMFPKDLNAEHDENFWADQHGLDLGDHLLISKSIHEAGDSVKIPARPAKVPRPPNCFILYRQANHHLVKDANPGVSNNEISRILGARWNNESPEVREQFTHLADELKKEHAIKHPDYQYAPRRPSERKRRTPRSRANCLPFVQADSHYEDMFDDADFEDRTISIDDHFITELNDNGLLFGPNGVEPLSPPFTHEECFEMSNDLTSGNSLASMEFLPMNSVF
binding [1]: binds | binding [2]: binds

B3: N-terminus of MAT1-2-1 (1-131 aa; MAT2-Nt) (domain or fragment, UniProt B1GVC0 1-131)
chain: T2 sequence
binding [1]: binds

Other lines, results leading:

binding [1]: binds
B1: fragment spanning N-terminus and DNA-binding domain of MAT1-1-1 (1-220 aa; MAT1-NtBD) (domain or fragment, UniProt B1GVB9 1-220)
chain: T3 sequence

binding [1]: no binding | binding [2]: no binding | binding [3]: no binding
B4: MAT1-1-1 polypeptide comprising only the DNA-binding domain and the C-terminus (109-342 aa; MAT1-CtBD) (domain or fragment, UniProt B1GVB9 109-342)
chain: MQNVLSSPLEQRRLRPLNSFMLFRSFCAPMFPGIPQKVKSMAISEMWQDDTLKSHWAILAKAYTIIRDHFDVDTPSLSTFVELCLPLMGHLDRQQYLRMAGWDVQPTGNSLSLRKIGLSNLASLSVPAIAVDQVVKHCIDNNYAQIRNEEWDKHILENGQVFAVDPAFSATVRDPQNWVFNNVPQWPIEEFEVDEMYSSLDTERDLGLPVIYDPNKNPSVAATMANLDRIFGHN
